Out of some 360,000 compounds screened, about 7,500 (2.1%) were called active. The inconclusive results got no clear call from the source; some entries with a clear call stand among them for comparison. The call rests on the fitted dose curve; in most records, active means well fitted cell-killing curve with a large enough effect; inconclusive means small, poorly fitted or top-dose-only effect, or effect the other way, or another doubt; inactive means no such curve, though single readings can be large or run the other way. No potency is given beside an inconclusive call; the fits are too rough.
assay: qHTS for induction of synthetic lethality in tumor cells producing 2HG: qHTS for the HT-1080-IDH1KD cell line; conditions: HT-1080 IDH1 knockdown viability, ATP luminescence, 48 h; activity, negative = toxicity: at 46.1 µM (top of the series) unless noted;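 on activity, negative = toxicity: 0% = DMSO wells and -100% = cell-free medium wells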
Summary of the method: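 Assay cells: HT-1080 with IDH1 knockdown, 750 per well, RPMI/5% FBS. Exposure: 48 h at 37 °C following 2 h pre-incubation. Read: CellTiter-Glo luminescence; fitted concentration-response, curve class assigned.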
Potency means the concentration at half of the fitted maximal effect; tags describe the fitted curve by direction and shape.

Compound | Potency | activity, negative = toxicity
Cc1ccc(Oc2ccccc2NC(=O)CSCC(=O)Nc2cc(C)on2)cc1 | inconclusive [cytotoxic, single point] | 
COc1cccc2c1C(=O)c1c(O)c3c(c(O)c1C2=O)CC(O)(C(C)=O)CC3OC1CC(O)C(O)C(C)O1 (centres undefined) | active: 23.1 µM | 
CC(C)(C)c1cc(NC(=O)CCl)n(-c2ccccc2)n1 | inconclusive [cytotoxic, partial curve] | 
COc1cc(CNCCN2CCOCC2)ccc1OCc1ccc(Cl)cc1 | inconclusive [cytotoxic, single point] | 
Cc1nc(C)c(C(=O)Nc2ccc(Oc3ccccc3)cc2)o1 | inactive | 
CCOc1ccc(NC(=O)CN(C)C(=O)/C=C/c2ccc(S(=O)(=O)N3CCCCCC3)cc2)cc1OCC | inactive | 
CC(C)C1CC(=O)NC(SCC(=O)Nc2ccc(Br)cc2)=C1C#N (centres undefined) | inconclusive [cytotoxic, partial curve] | 
CCOC(=O)c1cc2c(ccn2C)n1CC(=O)Nc1ccc(F)cc1 | inactive | 
O=C1C2ON(c3ccccc3)C(c3cccnc3)C2C(=O)N1Cc1ccccc1 (centres undefined) |  | inconclusive: 0.885%
CC1(c2ccc(O)cc2)NC(=O)N(c2ccccc2)N1 (centres undefined) | active: 10.3 µM | 
Cc1cccnc1NC(=O)C1CCC1 | inactive | 
Nc1nc(N(Cc2ccccc2)Cc2ccccc2)nc(C(F)(F)F)n1 | inconclusive [cytotoxic, single point] | 
COc1ccc2[nH]cc(C=O)c2c1 | inactive | 
Cc1c(C(=O)N/N=C/c2ccccc2)[nH]c2c([N+](=O)[O-])cccc12 | active: 0.517 µM | 
Clc1ccc(C2=Nn3c(nnc3-c3n[nH]c4c3CCC4)SC2)cc1Cl | inconclusive [cytotoxic, single point] | 
CCOC(=O)c1c(-c2ccccc2)csc1NC(=O)CCN1CCOCC1 | inactive | 
CN1CCN(c2ccc(NC(=O)c3cccc(OCc4ccccc4)c3)cc2)CC1 | active: 18.4 µM | 
Cc1ccc(S(=O)(=O)NCc2ccc(C(=O)N3CCN(c4ccccc4)CC3)cc2)cc1 | inconclusive [cytotoxic, single point] | 
Cc1ccc(N=c2oc3cc(O)ccc3cc2C(N)=O)cc1 | inconclusive [cytotoxic, partial curve] | 
c1ccc2[nH]c(-c3nc4ccccc4[nH]3)nc2c1 | inconclusive [cytotoxic, single point] | 
CSc1nnc(-c2ccccc2SC)o1 | inconclusive [rising, full curve] | 
COc1ccccc1Oc1cc(C#N)c(C#N)cc1-n1nnc2ccccc21 | inconclusive [cytotoxic, partial curve] | 
COc1ccc(CN(C(=O)Cc2cccs2)C(C(=O)NC2CCCC2)c2ccncc2)cc1 (centres undefined) | inactive | 
c1ccc(CSC2=NNC(c3ccccn3)S2)cc1 (centres undefined) | inconclusive [cytotoxic, single point] | 
C=CCN(CC=C)C(=S)NC(=O)Cc1cccc2ccccc12 | inconclusive [cytotoxic, single point] | 

Compound | Potency | activity, negative = toxicity
COc1ccc(-c2nn(-c3ccccc3)cc2C(=O)N(C)CC(=O)Nc2cccc(F)c2)cc1 | inconclusive [cytotoxic, single point] | 
COc1cccc(CNC(=O)C2CCN(S(=O)(=O)c3cccs3)CC2)c1 | inconclusive [rising, single point] | 
O=C1[C@@H]2Cc3c([nH]c4ccccc34)C(c3cccc(Br)c3)N2C(=O)CN1C1CCN(Cc2ccccc2)CC1 (some centres undefined) | active: 23.1 µM | 
O=C(Cc1sc(Nc2ccccc2)nc1-c1ccccc1)NCc1ccccc1 | inconclusive [cytotoxic, single point] | 
CC(=O)c1cccc(NC(=O)C2CCN(C(=O)c3cccs3)CC2)c1 | inactive | 
O=C(NC(=S)Nc1ccc(Oc2ccc(Cl)cc2)cc1)c1ccccc1 | inconclusive [cytotoxic, single point] | 
CSc1ncnc2c1ncn2CC(=O)C1CCC2C3CCC4=CC(=O)CCC4(C)C3CCC12C (centres undefined) | inconclusive [cytotoxic, single point] | 
O=C(OCC(=O)N(c1ccccc1)C1CCCCC1)c1ccc(CO)cc1 | inactive | 
Cn1cccc/c1=N\c1cccc[n+]1C | active: 23.1 µM | 
COc1ccc(/C=C/C(=O)c2c(O)ccc3c(C)cc(=O)oc23)cc1 | inconclusive [cytotoxic, single point] | 
CN(C)c1ccc(CNC(=O)C2(C)Cc3c(-c4cccc(C(F)(F)F)c4)ccnc3O2)cc1 (centres undefined) | active: 18.4 µM | 
COc1ccc(/C=C2/C(=O)N(c3nc4ccccc4s3)N=C2CSc2ccc(Cl)cc2)cc1 | inconclusive [cytotoxic, single point] | 
CC1CC(C)CN(C(=O)C2CCN(S(=O)(=O)c3ccc4c(c3)CC(C)N4C(=O)C3CC3)CC2)C1 (centres undefined) | inactive | 
Cc1ccc(-n2[nH]c(C)c(/C=N/c3ccccn3)c2=O)cc1 | inconclusive [cytotoxic, full curve, poor fit] | 
COc1ccc(/C=C/C(=O)Nc2ccc3nc4n(c(=O)c3c2)CCCC4)cc1OC |  | inconclusive: -15.8% [cytotoxic]
CCC(=NNC(=O)c1ccc2c(c1)nc(C)n2CC)c1cc(F)ccc1O | inconclusive [cytotoxic, partial curve] | 
COc1ccc(/C=C/C(=O)Nc2ccc(C(N)=O)cc2)cc1OC | inconclusive [cytotoxic, single point] | 
CCN(CC)S(=O)(=O)c1ccc(C(=O)NCC2(N3CCOCC3)CCCCC2)cc1 | inactive | 
O=C(Nc1ccc2nc(C(F)(F)F)[nH]c2c1)[C@@H]1O[C@H](CO)[C@@H](O)[C@H]1O | inactive | 
CCOc1ccccc1N1CCN(C(=O)C2c3ccccc3Oc3ccccc32)CC1 | active: 18.4 µM | 
Cc1nn(C(=O)c2c([N+](=O)[O-])cnn2C)c(C)c1Cl | inactive | 
O=C1NC(Cc2ccc(O)cc2)c2nc3cc(F)c(F)cc3c(=O)n2-c2ncccc21 (centres undefined) | active: 20.6 µM | 
COc1ccc(-c2ccc(C(=O)NCc3cccs3)c3occc23)c(C)c1 | inconclusive [cytotoxic, single point] | 
O=C(C1CC(=O)N(c2ccc(F)cc2)C1)N1CCC(c2nc3ccccc3[nH]2)CC1 (centres undefined) | inactive | 
COc1cc(C2Nc3ccc4ncccc4c3C3=C2C(=O)CCC3)cc(OC)c1O (centres undefined) | active: 8.2 µM | 

Compound | Potency | activity, negative = toxicity
O=C(NCC(c1ccco1)N1CCN(c2ccc(F)cc2)CC1)OCc1ccccc1 (centres undefined) | inconclusive [cytotoxic, single point] | 
CC(=O)Nc1cccc(-c2ccnc3c2CC(C(=O)NCCc2ccccc2)O3)c1 (centres undefined) | inconclusive [cytotoxic, single point] | 
Cc1ccc(S(=O)(=O)N2CC(O)CC2C(=O)OCC(=O)Nc2ccc([N+](=O)[O-])cc2C(F)(F)F)cc1C (centres undefined) | inactive | 
Cc1cc(Cl)ccc1OCCCC(=O)N1CCN(C(=O)c2ccco2)CC1 | inactive | 
CCc1nn(CC(=O)N2CC(C)CC(C)C2)c(=O)c2cccn12 (centres undefined) | inactive | 
Cc1ccc(OCC(=O)N(C)CC(=O)Nc2cccc(F)c2)cc1 | inactive | 
Cc1occc1C(=O)N/N=C/c1c(O)ccc2ccccc12 | active: 6.51 µM | 
CCOc1ncccc1C(=O)NCCc1ccc(OC)cc1 | inconclusive [cytotoxic, partial curve] | 
CCn1c(SCC(=O)Nc2nc(-c3ccccc3)cs2)nnc1-c1ccccc1O | inconclusive [cytotoxic, partial curve] | 
O=S(=O)(c1ccc2nc(-c3ccccc3)[nH]c2c1)N1CCN(c2ccc(Cl)cc2)CC1 | inconclusive [cytotoxic, single point] | 
CC(C)(C)c1ccc(OCCCNC2CCCC2)cc1 | inconclusive [cytotoxic, single point] | 
CCCC(=O)Nc1cc(C)cn(Cc2c(F)cccc2Cl)c1=O | inactive | 
CCn1c(CN2CCN(c3cccc(C)c3C)CC2)n[nH]c1=S |  | inconclusive: -14.8% [cytotoxic]
Fc1cccc(CN2CCCCCCC2)c1 | inconclusive [rising, single point] | 
Cc1ccc(NN2C(=O)C=C(c3ccccc3)C2=O)cc1 | active: 16.4 µM | 
COc1ccc(-c2oc3cc(OC)c(O)c(OC)c3c(=O)c2OC)cc1O | inconclusive [cytotoxic, single point] | 
O=C(Nc1ccccc1-c1ccccc1NC(=O)c1ccco1)c1ccco1 | inactive | 
O=S(=O)(c1cccc(-c2n[nH]c(=S)n2C2CCCC2)c1)N1CCOCC1 | inactive | 
O=C(Nc1ccc(S(=O)(=O)N2CCCCC2)cc1)c1ccc(CN2CCc3ccccc3C2)cc1 | inconclusive [cytotoxic, partial curve] | 
CCOC(=O)c1sc2nc(CSc3ccccc3)nc(NCCN(C)C)c2c1C | inconclusive [cytotoxic, single point] | 
O=C(N/N=C/c1ccc([N+](=O)[O-])o1)C1CC1 | inconclusive [cytotoxic, single point] | 
CC1(C)SC(=S)N(/N=C/c2ccccc2)C1N(O)C(=O)Nc1ccc([N+](=O)[O-])cc1 (centres undefined) | inconclusive [cytotoxic, single point] | 
CCOC(=O)C1CCN(C(=O)CN(c2ccc3c(c2)OCCO3)S(C)(=O)=O)CC1 | inactive | 
c1ccc(-c2nc3ccccn3c2NC2CCCC2)nc1 | inconclusive [cytotoxic, single point] | 
